Experimental data published in paper PMC6465297.
Positions count from the first letter of the chain named. Names may count otherwise. These are yes or no findings as the source states them, for the method shown. Binding seen in cells or lysates may run through a third protein. Some entries that bind do so weakly or less than the wild type. Where a sequence is shown, tags or fusion partners need not be part of it.

By UniProt entry, the sequences of proteins in these tests, tags left out.
UniProt Q4AC94: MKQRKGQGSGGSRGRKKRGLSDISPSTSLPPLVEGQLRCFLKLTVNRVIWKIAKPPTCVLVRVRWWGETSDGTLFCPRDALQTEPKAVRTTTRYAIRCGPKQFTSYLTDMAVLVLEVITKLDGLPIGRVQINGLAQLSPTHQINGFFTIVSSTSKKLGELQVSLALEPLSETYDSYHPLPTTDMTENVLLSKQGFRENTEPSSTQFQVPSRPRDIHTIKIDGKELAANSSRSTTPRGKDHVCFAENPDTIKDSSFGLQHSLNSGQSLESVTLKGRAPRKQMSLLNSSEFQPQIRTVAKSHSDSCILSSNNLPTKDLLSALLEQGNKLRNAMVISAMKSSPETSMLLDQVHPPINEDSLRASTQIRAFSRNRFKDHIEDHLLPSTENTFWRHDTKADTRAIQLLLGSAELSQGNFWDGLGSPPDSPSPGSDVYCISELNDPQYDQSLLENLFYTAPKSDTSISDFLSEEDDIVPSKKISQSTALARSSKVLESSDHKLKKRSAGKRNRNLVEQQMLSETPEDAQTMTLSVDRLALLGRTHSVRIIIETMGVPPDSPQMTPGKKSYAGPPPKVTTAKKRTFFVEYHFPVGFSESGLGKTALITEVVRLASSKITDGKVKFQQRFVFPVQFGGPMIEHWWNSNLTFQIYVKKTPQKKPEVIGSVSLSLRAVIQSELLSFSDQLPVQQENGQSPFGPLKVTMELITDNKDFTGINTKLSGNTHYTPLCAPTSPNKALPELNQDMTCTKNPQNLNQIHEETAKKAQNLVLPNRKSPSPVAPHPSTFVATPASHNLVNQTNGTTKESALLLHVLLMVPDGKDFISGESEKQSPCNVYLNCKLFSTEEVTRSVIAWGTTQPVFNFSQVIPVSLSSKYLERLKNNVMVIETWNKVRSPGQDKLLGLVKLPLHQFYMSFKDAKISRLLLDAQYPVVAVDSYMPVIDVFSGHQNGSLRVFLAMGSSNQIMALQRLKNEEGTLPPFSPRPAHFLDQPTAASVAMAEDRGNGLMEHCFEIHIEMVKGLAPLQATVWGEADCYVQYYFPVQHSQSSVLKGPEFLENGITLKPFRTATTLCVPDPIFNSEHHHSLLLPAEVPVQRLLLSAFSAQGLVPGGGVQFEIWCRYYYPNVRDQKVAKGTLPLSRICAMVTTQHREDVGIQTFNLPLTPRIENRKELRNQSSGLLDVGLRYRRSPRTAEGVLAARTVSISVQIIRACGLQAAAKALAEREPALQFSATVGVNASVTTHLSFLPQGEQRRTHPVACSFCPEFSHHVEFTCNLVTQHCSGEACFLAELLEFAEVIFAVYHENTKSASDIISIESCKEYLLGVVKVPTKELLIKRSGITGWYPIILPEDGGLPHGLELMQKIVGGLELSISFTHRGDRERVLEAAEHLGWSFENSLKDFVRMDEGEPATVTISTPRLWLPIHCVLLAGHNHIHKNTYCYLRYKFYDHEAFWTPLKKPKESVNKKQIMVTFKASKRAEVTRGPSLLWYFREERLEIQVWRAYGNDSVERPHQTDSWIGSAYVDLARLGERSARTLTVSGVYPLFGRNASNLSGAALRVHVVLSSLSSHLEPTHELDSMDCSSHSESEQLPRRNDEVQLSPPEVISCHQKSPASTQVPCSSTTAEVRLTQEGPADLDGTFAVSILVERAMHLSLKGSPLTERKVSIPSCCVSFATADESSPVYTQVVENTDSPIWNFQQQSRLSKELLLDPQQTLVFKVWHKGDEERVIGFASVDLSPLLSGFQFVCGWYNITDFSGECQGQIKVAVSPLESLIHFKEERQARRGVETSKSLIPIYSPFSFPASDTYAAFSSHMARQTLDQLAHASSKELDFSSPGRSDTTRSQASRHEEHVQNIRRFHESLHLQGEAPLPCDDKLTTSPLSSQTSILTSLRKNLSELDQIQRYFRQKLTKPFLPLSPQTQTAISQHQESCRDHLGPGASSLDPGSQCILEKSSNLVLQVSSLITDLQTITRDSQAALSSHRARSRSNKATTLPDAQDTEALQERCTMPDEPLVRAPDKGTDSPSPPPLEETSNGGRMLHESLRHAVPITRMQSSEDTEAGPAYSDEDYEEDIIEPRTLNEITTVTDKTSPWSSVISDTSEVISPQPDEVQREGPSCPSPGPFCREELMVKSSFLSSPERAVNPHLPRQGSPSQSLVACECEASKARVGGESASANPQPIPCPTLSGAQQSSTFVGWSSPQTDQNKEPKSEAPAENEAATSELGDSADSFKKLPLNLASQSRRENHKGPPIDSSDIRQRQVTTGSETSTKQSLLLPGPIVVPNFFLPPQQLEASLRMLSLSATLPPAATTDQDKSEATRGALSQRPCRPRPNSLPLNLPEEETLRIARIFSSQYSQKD

B1: CEP120-myc (aa 416–986) (domain or fragment, UniProt Q8N960 416-986)
chain: NPKASSSVPASLAQLVTTSNASEVASGQKIAVPATSHHFCFSIDLRSIHALEIGFPINCILRYSYPFFGSAAPIMTNPPVEVRKNMEVFLPQSYCAFDFATMPHQLQDTFLRIPLLVELWHKDKMSKDLLLGIARIQLSNILSSEKTRFLGSNGEQCWRQTYSESVPVIAAQGSNNRIADLSYTVTLEDYGLVKMREIFISDSSQGVSAVQQKPSSLPPAPCPSEIQTEPRETLEYKAALELEMWKEMQEDIFENQLKQKELAHMQALAEEWKKRDRERESLVKKKVAEYTILEGKLQKTLIDLEKREQQLASVESELQREKKELQSERQRNLQELQDSIRRAKEDCIHQVELERLKIKQLEEDKHRLQQQLNDAENKYKILEKEFQQFKDQQNNKPEIRLQSEINLLTLEKVELERKLESATKSKLHYKQQWGRALKELARLKQREQESQMARLKKQQEELEQMRLRYLAAEEKDTVKTERQELLDIRNELNRLRQQEQKQYQDSTEIASGKKDGPHGSVLEEGLDDYLTRLIEERDTLMRTGVYNHEDRIISELDRQIREILAKSNASN
B2: CEP120-myc I975S mutant (protein, UniProt Q8N960 1-986)
chain: MVSKSDQLLIVVSILEGRHFPKRPKHMLVVEAKFDGEQLATDPVDHTDQPEFATELAWEIDRKALHQHRLQRTPIKLQCFALDPVTSAKETIGYIVLDLRTAQETKQAPKWYQLLSNKYTKFKSEIQISIALETDTKPPVDSFKAKGAPPRDGKVPAILAGLDPRDIVAVLNEEGGYHQIGPAEYCTDSFIMSVTIAFATQLEQLIPCTMKLPERQPEFFFYYSLLGNDVTNEPFNDLINPNFEPERASVRIRSSVEILRVYLALQSKLQIHLCCGDQSLGSTEIPLTGLLKKGSTEINQHPVTVEGAFTLDPPNRAKQKLAPIPVELAPTVGVSVALQREGIDSQSLIELKTQNEHEPEHSKKKVLTPIKEKTLTGPKSPTVSPVPSHNQSPPTKDDATESEVESLQYDKDTKPNPKASSSVPASLAQLVTTSNASEVASGQKIAVPATSHHFCFSIDLRSIHALEIGFPINCILRYSYPFFGSAAPIMTNPPVEVRKNMEVFLPQSYCAFDFATMPHQLQDTFLRIPLLVELWHKDKMSKDLLLGIARIQLSNILSSEKTRFLGSNGEQCWRQTYSESVPVIAAQGSNNRIADLSYTVTLEDYGLVKMREIFISDSSQGVSAVQQKPSSLPPAPCPSEIQTEPRETLEYKAALELEMWKEMQEDIFENQLKQKELAHMQALAEEWKKRDRERESLVKKKVAEYTILEGKLQKTLIDLEKREQQLASVESELQREKKELQSERQRNLQELQDSIRRAKEDCIHQVELERLKIKQLEEDKHRLQQQLNDAENKYKILEKEFQQFKDQQNNKPEIRLQSEINLLTLEKVELERKLESATKSKLHYKQQWGRALKELARLKQREQESQMARLKKQQEELEQMRLRYLAAEEKDTVKTERQELLDIRNELNRLRQQEQKQYQDSTEIASGKKDGPHGSVLEEGLDDYLTRLIEERDTLMRTGVYNHEDRIISELDRQSREILAKSNASN
B3: CEP120-myc L712F mutant (protein, UniProt Q8N960 1-986)
chain: B2 chain with L712F, S975I
B4: CEP120-myc L726P mutant (protein, UniProt Q8N960 1-986)
chain: B2 chain with L726P, S975I

molecular target: full-length GFP-C2CD3 (human) (UniProt Q4AC94); experiment: co-IP; HEK293T cells co-transfected with the GFP- and myc-tagged constructs; lysates 24 h after transfection immunoprecipitated (anti-GFP antibody in the mapping) and immunoblotted

B1 was tested. Which binding did it give?
The binding was “binds”.

For B2, which binding is on record?
The binding was “binds weakly”.

How did the binding turn out when B3 was run?
Its binding is “binds”.

How did the binding turn out when B4 was run?
Its binding is “binds”.
